The results in this text go back to PMC9911399.

The list shows a part of the results.

The assay concerns the target T1, RBFOX1 RRM (Homo sapiens) (UniProt Q9NWB1).
T1 sequence: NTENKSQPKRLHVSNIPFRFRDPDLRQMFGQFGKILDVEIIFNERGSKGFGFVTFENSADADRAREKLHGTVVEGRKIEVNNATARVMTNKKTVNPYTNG
The assay is described as follows: EMSA. To be noted: HiTS-Eq, 1 nM pool, 10 min; buffer printed only for the single-RNA assays: 10 mM Tris pH 7.5, 150 mM NaCl, 3.4 mM EDTA, 0.001% NP-40, 30 C. (In general: Mobility shift assays separate free from complexed probe on a gel.)
On to “GGGAGACCGGAAUUCAGAUUGUCCGGUGUCCUUAAAUCCCGUCGUAGCCACCA / CAATCTGAATTCCGGTCTCCC / TGGTGGCTACGACGGGATT”, for which the binding signal (KA relative to UGCAUGU) came out at 0.00504.
In turn, “GGGAGACCGGAAUUCAGAUUGUCCCCCCACGUUAAAUCCCGUCGUAGCCACCA / CAATCTGAATTCCGGTCTCCC / TGGTGGCTACGACGGGATT” displayed a binding signal (KA relative to UGCAUGU) of 0.00292.
The sequence “GGGAGACCGGAAUUCAGAUUGUCCGCUCCCUUUAAAUCCCGUCGUAGCCACCA / CAATCTGAATTCCGGTCTCCC / TGGTGGCTACGACGGGATT” registered a binding signal (KA relative to UGCAUGU) of 0.00639.
Under “GGGAGACCGGAAUUCAGAUUGUCCCCCGAAAUUAAAUCCCGUCGUAGCCACCA / CAATCTGAATTCCGGTCTCCC / TGGTGGCTACGACGGGATT” stands 0.00373; under “GGGAGACCGGAAUUCAGAUUGUCCCCCAACUUUAAAUCCCGUCGUAGCCACCA / CAATCTGAATTCCGGTCTCCC / TGGTGGCTACGACGGGATT”, 0.0195.
Under “GGGAGACCGGAAUUCAGAUUGUCCGGACCCAUUAAAUCCCGUCGUAGCCACCA / CAATCTGAATTCCGGTCTCCC / TGGTGGCTACGACGGGATT” stands 0.00583; under “GGGAGACCGGAAUUCAGAUUGUCCCCCCACUUUAAAUCCCGUCGUAGCCACCA / CAATCTGAATTCCGGTCTCCC / TGGTGGCTACGACGGGATT”, 0.000187; under “GGGAGACCGGAAUUCAGAUUGUCCCCGGUCCUUAAAUCCCGUCGUAGCCACCA / CAATCTGAATTCCGGTCTCCC / TGGTGGCTACGACGGGATT”, 0.0299.
The same measure for “GGGAGACCGGAAUUCAGAUUGUCCCCACCACUUAAAUCCCGUCGUAGCCACCA / CAATCTGAATTCCGGTCTCCC / TGGTGGCTACGACGGGATT”: 0.0209.
Take “GGGAGACCGGAAUUCAGAUUGUCCCCCCCGAUUAAAUCCCGUCGUAGCCACCA / CAATCTGAATTCCGGTCTCCC / TGGTGGCTACGACGGGATT”: the binding signal (KA relative to UGCAUGU) was 0.00922.
Consider “GGGAGACCGGAAUUCAGAUUGUCCCCCCUAAUUAAAUCCCGUCGUAGCCACCA / CAATCTGAATTCCGGTCTCCC / TGGTGGCTACGACGGGATT”, for which the binding signal (KA relative to UGCAUGU) stood at 0.000185.
Under “GGGAGACCGGAAUUCAGAUUGUCCCCCCUCCUUAAAUCCCGUCGUAGCCACCA / CAATCTGAATTCCGGTCTCCC / TGGTGGCTACGACGGGATT” stands 0.000743; under “GGGAGACCGGAAUUCAGAUUGUCCCCCCUACUUAAAUCCCGUCGUAGCCACCA / CAATCTGAATTCCGGTCTCCC / TGGTGGCTACGACGGGATT”, 0.00532; under “GGGAGACCGGAAUUCAGAUUGUCCGGAACCCUUAAAUCCCGUCGUAGCCACCA / CAATCTGAATTCCGGTCTCCC / TGGTGGCTACGACGGGATT”, 0.00605.
Take “GGGAGACCGGAAUUCAGAUUGUCCGCUCUCCUUAAAUCCCGUCGUAGCCACCA / CAATCTGAATTCCGGTCTCCC / TGGTGGCTACGACGGGATT”: the binding signal (KA relative to UGCAUGU) came out at 0.00438.
In turn, “GGGAGACCGGAAUUCAGAUUGUCCUCCCACGUUAAAUCCCGUCGUAGCCACCA / CAATCTGAATTCCGGTCTCCC / TGGTGGCTACGACGGGATT” gave a binding signal (KA relative to UGCAUGU) of 0.00822.
“GGGAGACCGGAAUUCAGAUUGUCCCCCACACUUAAAUCCCGUCGUAGCCACCA / CAATCTGAATTCCGGTCTCCC / TGGTGGCTACGACGGGATT” had a binding signal (KA relative to UGCAUGU) of 0.00801.
The same measure for “GGGAGACCGGAAUUCAGAUUGUCCGGUCCGGUUAAAUCCCGUCGUAGCCACCA / CAATCTGAATTCCGGTCTCCC / TGGTGGCTACGACGGGATT”: 0.027.
“GGGAGACCGGAAUUCAGAUUGUCCUCCCAGAUUAAAUCCCGUCGUAGCCACCA / CAATCTGAATTCCGGTCTCCC / TGGTGGCTACGACGGGATT”: the binding signal (KA relative to UGCAUGU) came to 0.00658.
For “GGGAGACCGGAAUUCAGAUUGUCCGGUCGCCUUAAAUCCCGUCGUAGCCACCA / CAATCTGAATTCCGGTCTCCC / TGGTGGCTACGACGGGATT”, the binding signal (KA relative to UGCAUGU) was 0.00378.
Regarding “GGGAGACCGGAAUUCAGAUUGUCCGGUCCGCUUAAAUCCCGUCGUAGCCACCA / CAATCTGAATTCCGGTCTCCC / TGGTGGCTACGACGGGATT”, the binding signal (KA relative to UGCAUGU) was 0.0153.
The same measure for “GGGAGACCGGAAUUCAGAUUGUCCCCCACUAUUAAAUCCCGUCGUAGCCACCA / CAATCTGAATTCCGGTCTCCC / TGGTGGCTACGACGGGATT”: 0.00309; for “GGGAGACCGGAAUUCAGAUUGUCCCCCCCAAUUAAAUCCCGUCGUAGCCACCA / CAATCTGAATTCCGGTCTCCC / TGGTGGCTACGACGGGATT”: 0.0149; for “GGGAGACCGGAAUUCAGAUUGUCCCCACCCCUUAAAUCCCGUCGUAGCCACCA / CAATCTGAATTCCGGTCTCCC / TGGTGGCTACGACGGGATT”: 0.00159.
With “GGGAGACCGGAAUUCAGAUUGUCCCCCAUAAUUAAAUCCCGUCGUAGCCACCA / CAATCTGAATTCCGGTCTCCC / TGGTGGCTACGACGGGATT”, the binding signal (KA relative to UGCAUGU) was 0.00665.
In the case of “GGGAGACCGGAAUUCAGAUUGUCCCCCCCUCUUAAAUCCCGUCGUAGCCACCA / CAATCTGAATTCCGGTCTCCC / TGGTGGCTACGACGGGATT”, the binding signal (KA relative to UGCAUGU) stood at 0.00857.
The same measure for “GGGAGACCGGAAUUCAGAUUGUCCCCUCCCAUUAAAUCCCGUCGUAGCCACCA / CAATCTGAATTCCGGTCTCCC / TGGTGGCTACGACGGGATT”: 0.000806.
“GGGAGACCGGAAUUCAGAUUGUCCCCCACCCUUAAAUCCCGUCGUAGCCACCA / CAATCTGAATTCCGGTCTCCC / TGGTGGCTACGACGGGATT” gave a binding signal (KA relative to UGCAUGU) of 0.00453.
In the case of “GGGAGACCGGAAUUCAGAUUGUCCCCCAAACUUAAAUCCCGUCGUAGCCACCA / CAATCTGAATTCCGGTCTCCC / TGGTGGCTACGACGGGATT”, the binding signal (KA relative to UGCAUGU) is 0.00243.
“GGGAGACCGGAAUUCAGAUUGUCCCCGGUCAUUAAAUCCCGUCGUAGCCACCA / CAATCTGAATTCCGGTCTCCC / TGGTGGCTACGACGGGATT” yielded a binding signal (KA relative to UGCAUGU) of 0.00923.
The same measure for “GGGAGACCGGAAUUCAGAUUGUCCUCCCUCCUUAAAUCCCGUCGUAGCCACCA / CAATCTGAATTCCGGTCTCCC / TGGTGGCTACGACGGGATT”: 0.000662; for “GGGAGACCGGAAUUCAGAUUGUCCGGCUCCGUUAAAUCCCGUCGUAGCCACCA / CAATCTGAATTCCGGTCTCCC / TGGTGGCTACGACGGGATT”: 0.038.
In turn, “GGGAGACCGGAAUUCAGAUUGUCCGGCUCUCUUAAAUCCCGUCGUAGCCACCA / CAATCTGAATTCCGGTCTCCC / TGGTGGCTACGACGGGATT” came in with a binding signal (KA relative to UGCAUGU) of 0.00035.
With “GGGAGACCGGAAUUCAGAUUGUCCCUCCCGAUUAAAUCCCGUCGUAGCCACCA / CAATCTGAATTCCGGTCTCCC / TGGTGGCTACGACGGGATT”, the binding signal (KA relative to UGCAUGU) came out at 0.00227.
Under “GGGAGACCGGAAUUCAGAUUGUCCCCCGCCCUUAAAUCCCGUCGUAGCCACCA / CAATCTGAATTCCGGTCTCCC / TGGTGGCTACGACGGGATT” stands 0.00976.
Under “GGGAGACCGGAAUUCAGAUUGUCCGGCUUCCUUAAAUCCCGUCGUAGCCACCA / CAATCTGAATTCCGGTCTCCC / TGGTGGCTACGACGGGATT” stands 0.00915.
“GGGAGACCGGAAUUCAGAUUGUCCCCCUCCAUUAAAUCCCGUCGUAGCCACCA / CAATCTGAATTCCGGTCTCCC / TGGTGGCTACGACGGGATT” showed a binding signal (KA relative to UGCAUGU) of 0.00488.
Take “GGGAGACCGGAAUUCAGAUUGUCCCCCCCCCUUAAAUCCCGUCGUAGCCACCA / CAATCTGAATTCCGGTCTCCC / TGGTGGCTACGACGGGATT”: the binding signal (KA relative to UGCAUGU) stood at 0.0143.
The same measure for “GGGAGACCGGAAUUCAGAUUGUCCUCCCGCCUUAAAUCCCGUCGUAGCCACCA / CAATCTGAATTCCGGTCTCCC / TGGTGGCTACGACGGGATT”: 0.011.
